Reference: the supplement of paper PMC4466236
The full ranking holds about 33,000 sequences; the median of “E-score (dimensionless, -0.5 to 0.5)” is about -0.058, and the highest 2% start at about 0.35. The list shows a part of the results.

The sequences below were run on MvaT (assay: PBM 8-mer E-score (mean of HK and ME arrays) (E-score (dimensionless, -0.5 to 0.5)); higher = stronger relative binding preference; most listed sequences are background and not binding sites).
How it was run: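 Full-length P. aeruginosa MvaT, with glutathione S-transferase fused to its N-terminus (cloned into pTH6838 by isothermal assembly), was tested by protein binding microarray using a previously described protocol. Two universal double-stranded 60-mer arrays (ME and HK) were used, each with a constant 25-mer primer region and a variable 35-mer region covering all 8-mers. The rank-based 8-mer E-score (-0.5 to 0.5) is the mean of the two arrays, parsed with a custom Python script.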

Sequence | PBM 8-mer E-score
AGACGGCA | -0.137
ATGGCGCC | -0.322
AAGTCGCA | -0.0674
CCATAAGC | -0.088
ACAGCTGC | -0.202
ATGATTGA | 0.0689
ATAACCTG | 0.107
CTGACCTA | -0.113
GGAGGGCC | -0.37
ACCACACA | 0.00122
ATCTGCCA | -0.00975
CTCGCTTA | -0.0449
CCACGCAC | -0.239
ATATGGTC | 0.181
AAATTGTT | 0.351
ATAACTTA | 0.429
CATTAACA | 0.274
CGACTGAG | -0.00932
AGTGGAAT | 0.0494
CCCCGCCG | -0.227
GAGTTGTA | 0.287
CGTTCCTC | -0.32
AACCGAGG | -0.136
CACTGTTA | 0.184
CCTAACGC | -0.185

Sequence | PBM 8-mer E-score
CATCAGTA | -0.0832
AGCTGAAT | -0.0807
CATCATGA | 0.0333
ACGACTCC | -0.154
AACCGCAG | -0.0784
ACCGCTGC | -0.292
CATTGTAA | 0.237
CTTCGAGA | -0.142
GTCAAAAA | 0.0796
AAAGTGAC | 0.118
CCTAGTCA | -0.00162
ACGACAAG | -0.11
GACAGTCC | -0.189
TAAATATA | 0.442
ACTGGCCT | -0.159
GCTTGGCA | -0.277
ACGGCTGG | -0.191
CGCTGATA | 0.0618
AGGTACGG | -0.239
ACAGGCGG | -0.147
CAGAGTAG | -0.121
ATGACATG | -0.0134
CACTTGTA | 0.139
GCAGTGCA | -0.229
ACCACGGA | -0.0173

Sequence | PBM 8-mer E-score
TAACTGAA | 0.19
TTAGAAAA | 0.211
ACTTTTCG | 0.166
CTGAGCTA | -0.0354
ATTAACAG | 0.334
ATATTGTG | 0.251
CAGTTCAC | -0.0234
AGAGGCAC | -0.223
CACACAAA | 0.0457
GTGCGCGA | -0.136
CAGTATCA | -0.0367
ATGCCACG | -0.155
GTCAGCTA | -0.192
GTATGGCA | -0.0837
CTGCCCAC | -0.14
GCATAAGC | -0.098
ACTCCTAC | -0.0769
AGACTCGG | -0.243
CAACATTA | 0.293
ATACCAAG | -0.0486
ACGTCGAC | -0.0976
ACCACTCT | -0.0718
ACTTATCG | 0.216
CCGGTTCC | -0.277
CGAGCCCG | -0.182

Sequence | PBM 8-mer E-score
TGCGAGAA | 0.0245
CCTACTAA | -0.0552
CCCTAACC | -0.199
TATGCTGA | 0.0195
ACTGCAAA | 0.165
CCGTGGAA | -0.16
CCTGGCAG | -0.209
ATCAGCAT | 0.05
ATGAACCA | -0.0261
CGACCTCA | -0.184
CCCTACGA | -0.216
ACGAGGAG | -0.365
AAGTGGGC | -0.0768
AAAAGTTT | 0.352
CATGTGTC | -0.0494
AATATACC | 0.324
ACCATACC | -0.137
CCCAGAGA | -0.136
ATACCTGG | -0.0755
CGATGTGA | -0.146
TCCAAACA | 0.0422
CGCTTTTC | 0.115
GACAAGAC | -0.119
AACGTTGT | 0.177
CGAAGACG | -0.178

Sequence | PBM 8-mer E-score
CAGTGAGA | 0.0259
TTCTTCAA | 0.146
AATCAGCC | 0.0374
TAAGATAA | 0.337
CTGTTGTC | -0.0748
CTCTGGCA | -0.164
CTTTTACC | 0.0416
CGTCTTAA | 0.107
GTTTATGA | 0.208
ATCTTGAA | 0.111
AGGGTACA | 0.0185
ACAGGGTC | -0.285
CGTGGGCC | -0.328
AGCAAAAT | 0.192
CTGGACGA | -0.188
AAAACGGC | -0.000299
CGGAACAA | 0.000205
AATGTTAC | 0.186
CGGTCTTA | -0.115
AGTCGGTC | -0.0888
GGTGGCGA | -0.142
CACATACC | 0.0256
GAACTTAC | 0.228
GTCACGAA | -0.196
CGGACAAA | 0.029

Sequence | PBM 8-mer E-score
AGCTTCTC | -0.282
CCAGCGGG | -0.312
ATATGTAG | 0.264
AAAACACG | 0.122
GCTGGCTA | -0.274
GCAGTAAA | 0.157
AGTTTTCC | 0.136
AGCTTAAC | 0.0325
ATGCAGAA | 0.0633
CGAATACA | 0.199
ATATCATG | 0.22
CCTTCTAA | -0.0128
ATGTGCAG | 0.00997
CCTAGGGC | -0.21
ATTATTAC | 0.439
CATGAATG | -0.015
AATAGGGG | 0.0834
CGCAGGAG | -0.145
GCCCACAC | -0.149
AAGGTGTC | -0.145
ACGGTAGT | 0.029
CTATGCTC | -0.201
ATTAGGGA | 0.00465
AAACGCTG | 0.0263
AGAAAGAT | 0.0974

Sequence | PBM 8-mer E-score
CATACTTC | 0.224
CTTCCTTC | -0.208
TGCGGCAA | 0.00408
GTAACCAC | -0.0487
TAAACGCA | 0.152
AGATGAAT | 0.0926
AGGGTAAG | -0.101
GCTAGGTA | 0.102
TCCCACGA | -0.0595
CCGGACTA | -0.117
CGGCATAC | -0.0769
AAAAACGT | -0.00215
AGGCTTAC | -0.247
ATTACACG | 0.157
AACAAATA | 0.369
CACACGAC | -0.0827
AAGTTGTG | 0.179
GGAGCGAC | -0.217
CGTTGGGC | -0.274
GAACTCTA | 0.0278
CCAAAAAA | 0.112
GCTCCCCC | -0.391
AGGCTGAT | -0.0817
ACGCATCG | -0.196
CATACGTA | -0.0616

Sequence | PBM 8-mer E-score
GTGATCTA | -0.117
ACCACATA | 0.21
ACTCTTGA | -0.112
GGGCATAA | -0.0189
TCAATTAA | 0.237
GAACGTAC | -0.0393
ATAACTCA | 0.232
CTCTTTAA | 0.00514
ACATCTAC | 0.113
GGGTTCGA | -0.0836
TGAGGGCA | -0.307
GGGTCAAC | -0.238
GAAGGAAA | -0.229
GCAGTTAA | 0.248
TCCTACCA | -0.239
ATTCCTTG | -0.0186
CAAATGCG | -0.0484
ATTGAACC | 0.0543
AATATCCC | 0.174
ATTAGGGC | -0.152
AACGCTGT | -0.107
AGCCGCAC | -0.168
AACGTCAG | -0.0661
CATCGTTC | -0.148
AGTGCCGA | -0.0895

Sequence | PBM 8-mer E-score
GAGATAGC | -0.108
GAACTTCA | 0.176
GGTGTCAA | -0.0181
CGCCTCAC | -0.231
GCTAAAAC | -0.0314
CAGAGTTC | 0.0397
CCCGCTAG | -0.135
CTCTGCGC | -0.134
AGTATTGC | 0.0989
GGTACAAC | 0.073
CTAGCCTA | -0.138
CCTGACGA | -0.119
CGCCCTTC | -0.242
AGGACGGG | -0.152
TAGCGTAA | 0.0857
CAACCAAC | 0.0281
TTCGGAAA | 0.00334
ATTAGATA | 0.312
AGCCTCCA | -0.276
GAATTTCA | 0.108
CTCATTGC | -0.0825
CCAGGCAC | -0.347
CCCTCTCG | -0.179
AAACAATT | 0.346
AAACGGTG | -0.0487

Sequence | PBM 8-mer E-score
CTTAATGC | 0.177
CGGTATAG | -0.0372
CATCCTTC | -0.123
TACGCCCA | -0.121
GGACGGCC | -0.262
AACAATAT | 0.362
CACCGGAG | -0.244
AGGGGAGC | -0.376
ACAAACCC | 0.0533
CTAATTAA | 0.413
ATTCGCGG | -0.0656
ACATCTCC | -0.0467
ATGCTCAC | -0.139
CCTTCGCC | -0.29
CAATTTAG | 0.2
CGGGTCGC | -0.189
TAGGTAAA | 0.223
TGTAGAAA | 0.143
TCTCATAA | 0.0817
AAGTCTAA | 0.22
TGCTACAA | 0.138
AACCACTT | 0.0932
AGCTTCCC | -0.155
CCGGATTC | -0.146
CTCCTACA | -0.104

Sequence | PBM 8-mer E-score
AACCTGGA | -0.275
CCCCTCAG | -0.271
CATACAAC | 0.23
CACTCGGA | -0.0486
ACCCCGCT | -0.251
TACCTGCA | -0.00127
ACTCCTGA | -0.0172
AACCACGT | -0.0974
GATAGATC | -0.0141
CCAGTTGA | 0.021
GAGAAAGC | -0.107
CCGCTACC | -0.197
AGACACTA | 0.134
ACCCAAAT | 0.0222
GATAGGGA | -0.162
AATCATAA | 0.306
TAAGTGCA | 0.254
ATGTGGTC | 0.0334
GGATGCTA | -0.208
ATGTCCCA | -0.00613
ATTCCAAG | 0.101
AGTCGCCG | -0.245
AAGTTGTC | 0.168
CAGCTCGA | -0.191
CTGTTCCC | -0.133

Sequence | PBM 8-mer E-score
CGGGGATC | -0.256
GAAATCAC | -0.0943
AAAATTCT | 0.0934
AGTACACG | -0.15
GGTAACAA | 0.107
CATACTAC | 0.2
AGAAACGG | -0.0989
GCTGATTA | 0.0388
GACGCGTA | -0.165
CTACGCAC | -0.15
ATTACACC | 0.17
CGTTACAC | -0.0759
GCGTTTCA | 0.0513
CCCTTGGA | -0.316
CCAGCGTA | -0.264
GGTGTCCA | -0.177
ACTGAAAG | -0.0474
ACTATTTA | 0.345
CGATCGAA | 0.0143
ATGGCGCA | 0.00875
AATCCGCG | -0.0171
GAGTAGTA | 0.107
CCAGTACC | -0.225
CCTACCCG | -0.16
CACATAGC | -0.135

Sequence | PBM 8-mer E-score
AGCCGGGG | -0.1
CAATGGCA | -0.151
AGCTATGC | -0.226
AATTCTGT | 0.141
GCCGAACC | -0.115
AACAATTA | 0.391
GGTGGGAC | -0.191
AACTATCC | 0.208
CTACTTAC | 0.221
CATCTGAC | -0.163
AGGAGATC | -0.28
AGCCTTAA | -0.0656
AAGGGTAC | -0.0522
AACAAGTG | 0.0247
GTGGAGCA | -0.12
AAGCATTG | -0.0753
GAACGGAC | -0.211
CGACCCAC | -0.135
AGGAAGCC | -0.252
AATCTTCA | 0.156
GCTCCGAA | -0.143
AGTATTCC | 0.0623
CAGCACTA | -0.0158
AAGTATTG | 0.214
GGAGCCGA | -0.232

Sequence | PBM 8-mer E-score
CCCAGTTC | -0.148
TGTCCACA | -0.0993
TATTTGCA | 0.326
ACACTGAT | 0.178
GTGTTTGA | 0.103
CAAAGTCA | 0.0289
AGATGCAC | -0.237
CTATTCGA | 0.0943
CTTGCCGC | -0.0843
GAAGCTTC | -0.144
AAAAATGC | 0.0931
GAATTCAA | 0.0832
CCGAGGTA | -0.117
GGCATCCA | -0.181
GGTTAGCA | -0.0956
CTAAAGAC | -0.0237
CCAAGACC | -0.21
ATCGTTCA | -0.0616
AGATATAA | 0.373
